Measurements reported in PubChem BioAssay AID1347073 (National Center for Advancing Translational Sciences (NCATS), 2019).
Out of some 45,000 compounds screened, about 200 (0.44%) were called active. Roughly 7% stayed inconclusive and do not appear here. Calls follow the shape of the dose curve; as a rule, active = well fitted activation curve with a large enough effect; inconclusive = small, poorly fitted or top-dose-only effect; inactive = no such curve, though single readings can be large or run the other way. Some of the results follow.

assay: qHTS of TDP-43 Inhibitors: NCGC Sytravon Library Screen; details: yeast TDP-43 toxicity rescue, BacTiter-Glo growth, 24 h; series mostly up to 46.1 µM; growth rescue (activation): at the top concentration; also: nearly all actives have a fitted effect of over 55% in size; as to growth rescue (activation): 0% is about no effect
Method in brief: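 TDP-43-expressing yeast, pregrown in raffinose, seeded at OD600 0.02 in galactose medium with compound for 24 hr at 30 deg C. Growth read by BacTiter-Glo luminescence, so rescue of toxicity appears as activation.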
Potency is read from the fitted curve at half-maximal effect.

SMILES	growth rescue (activation)	Potency
COc1ccc(C2(CCN=Cc3ccc(N(C)C)cc3)CCOC(C)(C)C2)cc1 (stereo not given)	inactive: 12.3%	
O=S(=O)(c1ccc(S(=O)(=O)N2CCC(O)CC2)cc1)N1CCCC1	inactive: 0.193%	
O=C(Nc1cc(Br)ccc1O)c1cc(-c2cccs2)on1	inactive: 5.99%	
Cc1cccc(NC(=O)c2cc3ccccc3nc2C)c1	inactive: 9.03%	
COc1ccccc1NC(=O)NC1CCS(=O)(=O)C1 (stereo not given)	inactive: -2.15%	
COc1ccc(NC(=O)C(C)N2C(=O)C3CC=C(Cl)CC3C2=O)cc1 (stereo not given)	inactive: -4.25%	
Cc1cc(C)nc(SCc2ccc(C(=O)N/N=C/c3ccncc3)cc2)n1	inactive: 2.9%	
CC(=O)c1ccc(S(=O)(=O)N(C)CCCC(=O)N(C)Cc2c(F)cccc2Cl)cc1	inactive: 5.94%	
CSc1ccccc1NC(=O)CN(C)CC(=O)Nc1cc(C)ccc1C	inactive: 11.7%	
O=C(/C=C/c1ccccc1)N/C(=C\c1ccco1)C(=O)O	inactive: -0.546%	
O=C(/C=C/c1cc([N+](=O)[O-])ccc1OC(F)F)Nc1ccc(OC(F)F)cc1	inactive: 17.1%	
CN(C)S(=O)(=O)c1cccc(COC(=O)c2cccnc2Cl)c1	inactive: 12.6%	
Cc1ccc(SC(CC(=O)c2ccc(C(C)(C)C)cc2)C(=O)O)cc1 (stereo not given)	inactive: -41.3%	
Fc1ccc(C2=CC(c3cccs3)n3nnnc3N2)cc1 (stereo not given)	inactive: 10.1%	
Cc1[nH]nc2c1C(c1ccco1)C(C#N)=C(N)O2 (stereo not given)	inactive: -1.41%	
Cc1ccc(-c2nn(CCC(=O)NC(C)C)c(=O)c3ccccc23)cc1	inactive: 3.59%	
COc1ccc(Br)cc1C(=O)Nc1ccc(C(=O)O)cc1		active: 4.47 µM
CCOc1ccc(CC(=O)OCc2cc(=O)n3cc(Br)ccc3n2)cc1	inactive: 21%	
COc1cc2c(cc1OC)CN(C(=O)CNS(=O)(=O)c1ccc(C)c(C)c1)CC2	inactive: 13.9%	
COc1ccccc1/C=C/C(=O)NNC(=O)c1cccs1	inactive: 4.34%	
COc1ccc(OC)c(S(=O)(=O)NC(=O)C2(C)CCN2C(=O)Cc2ccc(Cl)cc2Cl)c1 (stereo not given)	inactive: -9.63%	
CCCC(=O)N1CCCC(C(=O)c2cccc(OC(C)C)c2)C1 (stereo not given)	inactive: 8.21%	
CCOC(=O)Nc1sc(C)c(C)c1C(=O)OCC	inactive: -2.71%	
COc1ccccc1-c1cc2nc(NCCc3ccncc3)ccn2n1	inactive: 15.5%	

SMILES	growth rescue (activation)	Potency
Cc1cc(C)cc(N(CC(=O)Nc2ccccc2-c2ccccc2)S(=O)(=O)c2ccccc2)c1	inactive: -7.76%	
COc1ccnc(Oc2ccc(F)cc2)c1-c1ncn[nH]1	inactive: -3.25%	
O=C(COc1ccccc1Cl)NCCNC(=O)c1cnccn1	inactive: -17.8%	
CNc1nc(CC(C)=O)ns1	inactive: -1.57%	
N#C/C(=C(/O)c1ccc(-c2cccc([N+](=O)[O-])c2)o1)c1nc2ccccc2s1	inactive: -13.5%	
COC(=O)COc1nc(C)c(Br)c(OC)n1	inactive: -0.921%	
C=CCN1C(=O)C(CC(=O)Nc2ccc(OC)cc2)SC1=Nc1ccc(S(N)(=O)=O)cc1 (stereo not given)	inactive: 10.8%	
COC(=O)C(CC(=O)c1ccc(Br)cc1)n1nc(C)cc1C (stereo not given)	inactive: -7.84%	
CC(=O)Nc1ccc(NC(=O)C(C)OC(=O)c2cccs2)cc1 (stereo not given)	inactive: 22.3%	
CC(=O)c1ccc(NC(=O)CN2CCCCCC2)cc1	inactive: -9.67%	
NC(=S)N/N=C/c1coc2ccc(Br)cc2c1=O	inactive: 25.9%	
COc1ccc(NC(=O)c2cc(-c3cc(Cl)ccc3O)n[nH]2)c(OC)c1	inactive: 4.47%	
Cc1ccc(CN(C)CC(=O)NC(C)c2ccccc2)cc1 (stereo not given)	inactive: -3.07%	
N/C(Cc1nc(-c2ccc(Br)cc2)cs1)=N\O	inactive: 14.3%	
Cc1ccc(NC(=O)n2ncc3c(C)cccc32)c(C)c1	inactive: -8.79%	
COc1cc(SC)ccc1C(=O)Nc1ccccn1	inactive: 27.9%	
COc1ccc(OC)c(N(C(=O)c2snc(C(N)=O)c2N)C(C(=O)NCc2ccccc2)c2ccc(O)cc2)c1 (stereo not given)	inactive: -2.84%	
CC(C)OC(=O)Cn1c(=O)oc2ccccc21	inactive: 3.08%	
CCOc1ccc(N(C(C)C(=O)Nc2cccnc2)S(C)(=O)=O)cc1 (stereo not given)	inactive: 0.397%	
O=C1C2CCCN2C(c2cccs2)N1c1ccc(F)cc1 (stereo not given)	inactive: 11.6%	
CCCNC(=O)c1cc(C2CCCN(C(=O)c3ccc4c(c3)CCO4)C2)on1 (stereo not given)	inactive: 7.41%	
Cc1ccc(S(=O)(=O)NCC(=O)N(CC(=O)NCc2ccco2)Cc2ccccc2)cc1	inactive: 14.8%	
Cn1c2ccccc2c(=O)c2c(=O)n(Cc3ccco3)c(COc3ccccc3)nc21	inactive: -15.2%	
O=c1c2ccccc2nc(/C=C/c2ccccc2)n1CCc1ccccc1	inactive: 0.538%	

SMILES	growth rescue (activation)	Potency
COc1ccccc1/C=C/C(=O)NCC(=O)N/N=C(\CCC(=O)O)c1ccccc1	inactive: -15.8%	
Cc1ccc(N(C(=O)NC2CCCCC2)C2=NCCCCC2)cc1	inactive: 13.1%	
CCN1CCN(C(=O)c2cc3c(=O)n4ccccc4nc3s2)CC1	inactive: 0.923%	
CN1CCCN(S(=O)(=O)c2ccc3ccccc3c2)CC1	inactive: -0.437%	
O=C(Nc1cccn2nc(COCCO)nc12)C(c1ccccc1)c1ccccc1	inactive: 12.7%	
O=C(CN1CCN(Cc2ccc(Cl)cc2)CC1)N/N=C/c1c[nH]c2ccccc12	inactive: 0.728%	
O=c1c2[nH]c3ccc(Br)cc3c2ncn1Cc1ccncc1	inactive: -2.43%	
O=S(=O)(c1ccc(Cl)cc1)N1CCN(CCc2ccncc2)CC1	inactive: -6.16%	
c1ccc(-c2nc3c4ccccc4ccn3c2CN2CCCCC2)cc1	inactive: -2.23%	
O=C(Nc1cccc(Cl)c1)Nc1ccccc1NS(=O)(=O)c1cccs1	inactive: 3.73%	
COc1ccc2nc(C)cc(SCC(=O)N/N=C/c3ccc(O)c(O)c3)c2c1	inactive: 2.71%	
COc1ccc(NC(=O)C/C(C)=N/NC(=O)C(=O)Nc2cccc(Cl)c2C)c(OC)c1	inactive: 20.7%	
CCOCCCn1c(=N)c(S(=O)(=O)c2ccccc2)cc2c(=O)n3cc(C)ccc3nc21	inactive: 14.3%	
CC(=O)Nc1ccc(C(=O)OCc2ccc(F)cc2)cc1	inactive: 38.3%	
CC1(C(=O)NS(=O)(=O)c2ccc(C#N)cc2)CCN1C(=O)Cc1ccc(Cl)cc1Cl (stereo not given)	inactive: -0.628%	
Cc1cnc2c(C(=O)O)cnn2c1	inactive: 3.41%	
Cc1ccc(S(=O)(=O)N/N=C2/CC(=O)CC(C)(C)C2)cc1[N+](=O)[O-]	inactive: 0.338%	
CC(C)C(NS(=O)(=O)c1ccccc1)C(=O)OCC(=O)NNC(=O)c1ccccc1 (stereo not given)	inactive: 18.6%	
Cc1ccc(-n2[nH]c(=O)c(-c3ccccn3)c2C)cc1	inactive: 15.1%	
CCCNC(=O)C1(C)CCN(C(=O)COc2ccc(Cl)cc2Cl)C1 (stereo not given)	inactive: 3.86%	
COCC(C)NC(=S)NCCc1ccc(Cl)cc1Cl (stereo not given)	inactive: 25.6%	
O=C(Nc1cccc(Cl)c1)N1Cc2ccccc2Oc2ncccc21	inactive: 12.5%	
